In article PMC12136788:
The list shows a part of the results.

T1: UNK ZnF1-3 (human, UniProt Q9C0B0 31-174)
T1 sequence: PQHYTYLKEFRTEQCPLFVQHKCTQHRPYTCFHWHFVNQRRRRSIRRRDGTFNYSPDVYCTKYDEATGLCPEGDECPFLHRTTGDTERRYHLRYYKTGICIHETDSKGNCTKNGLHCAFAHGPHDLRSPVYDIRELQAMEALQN

B1: chr12:46321692:46321693:-_ENSG00000139218_ENST00000369367|hu_mus|FALSE|FALSE (ssRNA)
RNA: GGGAGUUCUACAGUCCGACGAUCGCUCUCUACAAAUGCUUCUAUGUUUACUGCAGAAUCGUUCAAGUCAGUACUUUCUACAGUGAGACUCUCCCCUGUUCUUUCAUCGUUCAAGUCAGUACUUUCUACAGUGAGACUCUCCUCCAACAGAGGAUUGAGCAUCA
B2: chrX:118797523:118797524:-_ENSG00000125354_ENST00000360156|hu_mus|FALSE|FALSE (ssRNA)
RNA: GGGAGUUCUACAGUCCGACGAUCCACGAUGGGCUUGUAGCUGUCCUCCUUGUUGAUCUGAUCCCCAAAGCCUACAGUGCUCACAAUUGUGAGUUUCAACCCCACGUUGCUCUCCUGGAGGUCGUAGGUAUUGGACUGGAGCUGCAACAGAGGAUUGAGCAUCA
B3: chr2:168009442:168009443:-_ENSMUSG00000051149_ENSMUST00000088001|mus_hu|motif|central (ssRNA)
RNA: GGGAGUUCUACAGUCCGACGAUCGCGAUUACAGUAGAGGCAUUUGCUAGUAAAAUUGUGUAUUUUCAUAAUGUAGUUGGCGGCUGCUGGGACUUUCUCAGCUUUAUGUUCUUUUUCGAAGUGCACACUAUAGACAUUUUCAGGCAACAGAGGAUUGAGCAUCA
B4: chr5:139724684:139724685:+_ENSMUSG00000036817_ENSMUST00000110883|mus_hu|FALSE|FALSE (ssRNA)
RNA: GGGAGUUCUACAGUCCGACGAUCCUCUCAGCUUCCUCUGCUUUGCUCCUUUGUUGAGGAAAUGCAAAUGCAAAGAGCUUCCCGUUAAAAACAAGGAGUGUCUGAGAGCCACGUGUUCAACACGCUUCUCCUGCUGCUGACCCCCAACAGAGGAUUGAGCAUCA
B5: chr19:33076771:33076772:+_ENSG00000105185_ENST00000590247|hu_hu|motif|central (ssRNA)
RNA: GGGAGUUCUACAGUCCGACGAUCUGCCAUCUGUAUAAGGUAAUUCUCUACUGCUUUAGUUUUUUCAGGCUUUACAAGUGCGGAGUUACUUAACCUGGCCCGGGCCGACUGAUCCAGAACUUGGGCUAAGAUACUGUUUCUCAUCAACAGAGGAUUGAGCAUCA
B6: chr8:101271117:101271118:-_ENSG00000034677_ENST00000519449|hu_hu|motif|central (ssRNA)
RNA: GGGAGUUCUACAGUCCGACGAUCAUAAUCACUGGAACCAUGACUACAAGAAGUUUUCAUGCUUUCUAGGUCAGAACAACGGAAUUCAGAAAAAUGACUAGAGUGAGAAUCUGCUACAGAAGGCAUACUGUCACUGAGGGAUGGCAACAGAGGAUUGAGCAUCA
B7: chrX:98878078:98878079:+_ENSMUSG00000034160_ENSMUST00000044475|mus_mus|FALSE|FALSE (ssRNA)
RNA: GGGAGUUCUACAGUCCGACGAUCAAGCAACAUUUUAGUUUAAAACCUCAGAAGAAUCAAGAUCACUUCACAUGAGUAAAAAUACCUGAAAGCAAACAUUUUUAAAAGCUCCAAAACCCAAAAUAUAAAGAAAAAAAAAAGGAUCAACAGAGGAUUGAGCAUCA
B8: chr12:96407613:96407614:-_ENSG00000111144_ENST00000228740|hu_mus|motif|central (ssRNA)
RNA: GGGAGUUCUACAGUCCGACGAUCCUUCCAGUCAUCAGUCGUUACACUUUGGUAGGAAAACUUCUUAACAUAAGCCUUUAAGAAUCCGGGAAACACCUCUGGUCCCCCAAGAAGCUGUUCAAGGUAGAAGAGUAGCGCAAAGCCCAACAGAGGAUUGAGCAUCA
B9: chr4:140556289:140556290:+_ENSMUSG00000036622_ENSMUST00000037055|mus_mus|mus_mus_mus_hu_False|8_68 (ssRNA)
RNA: GGGAGUUCUACAGUCCGACGAUCGAUGGAGCUCACCAGGCCCCCUUUUGCCGUGCAGAACCCUGUGCGAGUCACCACUGCCAGGACGUGCGGUCCCACAUAGGCCCGGGCCUGCAAGAUGAGGGUCCCACAGAAGAGUGUGUGCAACAGAGGAUUGAGCAUCA
B10: chr7:141441981:141441982:+_ENSG00000106028_ENST00000265304|hu_mus|hu_hu_hu_mus_False|28_58 (ssRNA)
RNA: GGGAGUUCUACAGUCCGACGAUCCUCAUGUCUUACAAACUGACGAAAUACCUGUAACACAGGUCUUCGAAACAUGGCUUCUAUUUUUCUUACAACCUAAUCUUUAGUUAGGCUUUUAAGGAAAGAAAGAAAAGAGAAAAAUGACAACAGAGGAUUGAGCAUCA
B11: chr6:40197388:40197389:+_ENSMUSG00000057716_ENSMUST00000061740|mus_mus|mus_mus_mus_hu_False|18_28 (ssRNA)
RNA: GGGAGUUCUACAGUCCGACGAUCGAGACACUGGGGUGGAUUUAUUCCACCUCUGUUUGGGUGCUAGCCACUAAGACUGUUAUUUUGGGAUUCAUGGCCUUGAAUAUCAAGAGGAAAGGGACGAGAAUGGAAAGAGUCAAGAGUCAACAGAGGAUUGAGCAUCA
B12: chr4:57314706:57314707:+_ENSG00000128050_ENST00000264221|hu_mus|hu_hu_hu_mus_True|48_78 (ssRNA)
RNA: GGGAGUUCUACAGUCCGACGAUCCAGAAUUUCAAAAAUAGCUUGUGUGGCAUGACUCAUGAUAUCCACUUCAGUCUGCCCUAUAACAAGUCCAGCAAAACAGAAUUUUGCAGCAAUGAGUUGCUCCUCAGACCACUGUGGAUCCAACAGAGGAUUGAGCAUCA
B13: 46381354_46381577_853_CDS_ENSMUSG00000067148_ENSMUST00000087026|mouse|control|control (ssRNA)
RNA: GGGAGUUCUACAGUCCGACGAUCCCUGGCCACCUUUUUACCUUGUACUUCCUCCACCUCAAUCACGCCAGGGGAGAAACACUGGCUCAGCUCCUCAGCCGCUUCUCCUUCCACAGGCUCAAGCAGAGUGAUGGCCGGUAGCAGCAACAGAGGAUUGAGCAUCA
B14: 25783920_25784040_2318_CDS_ENSG00000091490_ENST00000264868|human|control|control (ssRNA)
RNA: GGGAGUUCUACAGUCCGACGAUCGUAUGACGCAUCUGGGUUCCCCAUUUCUUCUGCUUUUAACCAGUACUUUGCUGCUUUGGCGUAAUUUUUCUUGAAUUUGUGGUAAUACCAUCCCAGGCCAUUGACUGCCUGAUGCAAUCCCAACAGAGGAUUGAGCAUCA
B15: chr7:54823571:54823572:-_ENSG00000132432_ENST00000352861|hu_mus|hu_hu_hu_mus_False|1_58 (ssRNA)
RNA: GGGAGUUCUACAGUCCGACGAUCUCCCAUGAUAGCAAAUCCUAUAGCUGUAGCCAUGGCAAUCUUCUGGAAUUCUUUUCUAUCAGGUUUGGUGCAUCUUUUAACCAGCCGAAUUGAGUCCUUUACAAACUGCCGGCUUGGCUCCAACAGAGGAUUGAGCAUCA
B16: chr6:146598974:146598975:+_ENSMUSG00000030291_ENSMUST00000032429|mus_hu|motif|central (ssRNA)
RNA: GGGAGUUCUACAGUCCGACGAUCCUGAUUCAAUCAUGAUUUUAUAAGCUUAUCAAGAGUGAAAAUAGAAGACUAUUAAAAAUAGCGGAAAAGGUAAUGUGUCAUAGUGUUUAAUGUUUCUGUAAUUGUUGGUAAGGCUUGUAUCAACAGAGGAUUGAGCAUCA
B17: chr2:232320318:232320319:-_ENSG00000115053_ENST00000322723|hu_hu|hu_hu_hu_mus_True|38_58 (ssRNA)
RNA: GGGAGUUCUACAGUCCGACGAUCACUAUUAAAGUCUACAAAACCAAACCCUUUGGAAGAACCAGUUUCCCGAUCAGUAACUAUCCUUGCACGAACAGAGCCGUCAAAUGAUUCUUUUAAGGUCUCUUCAGUGGUAUCCUCAGACAACAGAGGAUUGAGCAUCA
B18: chr6:108246082:108246083:-_ENSG00000025796_ENST00000369002|hu_mus|motif|central (ssRNA)
RNA: GGGAGUUCUACAGUCCGACGAUCUGUUUUGGAAACUUUGUAUGCAAGAAAUAAGAACAGUGCCCAUCCUGCAAGCAGAACGGUUUUCUUUACUGUAGGAAUAAUAUUUGGCUGGGGUUUUAAUAACCGUAAACGAUACCACAUCAACAGAGGAUUGAGCAUCA
B19: chr3:148802587:148802588:-_ENSG00000071794_ENST00000310053|hu_mus|hu_hu_hu_mus_False|8_38 (ssRNA)
RNA: GGGAGUUCUACAGUCCGACGAUCUCCAACAACUUGUCCUCUCAUAGUUCCAAAUAAAACCAAAUCUUGCUCUUCAUCACUCGUUAGGAAGUCAUCUGGAGGGAUAAUGUCUUGGAAUUCAAAAUGUGGAAAGAAAGUUGAGUACAACAGAGGAUUGAGCAUCA
B20: chr1:202705475:202705476:-_ENSG00000117139_ENST00000367264|hu_hu|motif|central (ssRNA)
RNA: GGGAGUUCUACAGUCCGACGAUCCAGUCUUGGCAAAGAAUUCAGAUGUACGGGGAUAGAUCGGCCUCGUGUAACAAGUUCGGUGAGUGUGUCUAACACUGGCACACGUCCUCCAGCCUGCAGGCCCUCUACAUCCUGAAGCCACAACAGAGGAUUGAGCAUCA
B21: chr7:149068622:149068623:-_ENSMUSG00000025139_ENSMUST00000001950|mus_hu|mus_mus_mus_hu_False|48_88 (ssRNA)
RNA: GGGAGUUCUACAGUCCGACGAUCGUGAGGCCUCUGAGUGUGGCUUGUGCUCUGCAGUGGGUUAGAGUUGUUAAUAUCACGGAACAUACCACUUAAGACGUUCCAGUCCCGCCUGACACCUUCAUUCCCAAUGGAGAAGAAAUCCAACAGAGGAUUGAGCAUCA
B22: 86453445_86453565_1449_CDS_ENSMUSG00000013033_ENSMUST00000141158|mouse|control|control (ssRNA)
RNA: GGGAGUUCUACAGUCCGACGAUCCGUGGUGGUGUGGCGUGCGGCUACAUAGUCCUCCCAUGAGGCAUAUUCAGUCAAUGUGUCCGUGCGGUAGGGGAUCCAGGGCAUAACGUAGAUACGGUCACCUGCCUGCAGCGGGUCCUUCAACAGAGGAUUGAGCAUCA

target: T1, UNK ZnF1-3; assay: nsRBNS (natural sequence RNA bind-n-seq); RBNS binding buffer (assumed for nsRBNS): 25 mM Tris pH 7.5, 150 mM KCl, 3 mM MgCl2, 0.01% Triton X-100, 500 ug/ml BSA, 20 U/ml SUPERase-In, 4 C; UNK is unkempt and MSI1 is Musashi-1; names of the RNAs are library labels; protein concentration not given here; high values mean tight binding

With B1 as the binder, how does the binding signal read?
Its binding signal is 0.734 enrichment R.

Which binding signal does the source give for B2 here?
The binding signal was 0.603 enrichment R.

Which binding signal does the source give for B3 here?
Its binding signal is 1.78 enrichment R.

Which binding signal does the source give for B4 here?
Its binding signal is 0.618 enrichment R.

Which binding signal does the source give for B5 here?
Its binding signal is 0.879 enrichment R.

Which binding signal does the source give for B6 here?
The binding signal was 1.19 enrichment R.

Which binding signal does the source give for B7 here?
The binding signal was 1.48 enrichment R.

B8 was tested. Which binding signal did it give?
Its binding signal is 1.18 enrichment R.

How did the binding signal turn out when B9 was run?
Its binding signal is 1.01 enrichment R.

B10 was tested. Which binding signal did it give?
Its binding signal is 0.595 enrichment R.

With B11 as the binder, how does the binding signal read?
Its binding signal is 1.21 enrichment R.

How did the binding signal turn out when B12 was run?
Its binding signal is 0.97 enrichment R.

Which binding signal does the source give for B13 here?
Its binding signal is 0.646 enrichment R.

B14 was tested. Which binding signal did it give?
Its binding signal is 0.487 enrichment R.

B15 was tested. Which binding signal did it give?
Its binding signal is 0.807 enrichment R.

With B16 as the binder, how does the binding signal read?
Its binding signal is 2.46 enrichment R.

Which binding signal does the source give for B17 here?
Its binding signal is 0.97 enrichment R.

Which binding signal does the source give for B18 here?
The binding signal was 0.646 enrichment R.

Which binding signal does the source give for B19 here?
Its binding signal is 1.22 enrichment R.

For B20, which binding signal is on record?
Its binding signal is 0.712 enrichment R.

With B21 as the binder, how does the binding signal read?
Its binding signal is 0.788 enrichment R.

B22 was tested. Which binding signal did it give?
The binding signal was 0.82 enrichment R.
